Measured values: ChEMBL document CHEMBL4888484, “Replenishing the malaria drug discovery pipeline: Screening and hit evaluation of the MMV Hit Generation Library 1 (HGL1) against asexual blood stage Plasmodium falciparum ,using a nano luciferase reporter read-out” (2022)
Hit rate of the full screen: of about 150,000 compounds, about 540 (0.36%) showed an effect of 50% or more. The list shows a part of the results.

What follows are compounds tested on Plasmodium falciparum (assay: Primary screen in NF54 nanoGlo assay, in single point, at 2uM, 72h; a lower Z score goes with more inhibition). Conditions: timepoint 72 hour.
Type: functional, Erythrocyte
For `COC[C@H](Nc1nnc(C2CCC2)o1)c1ccnn1C`, the “% Inhibition” value was 1% and the Z score was -0.08.
`COC(=O)c1ccc(C(C)C)c(NC(N)=O)c1` was tested, and the “% Inhibition” value was -6% and the Z score was 1.16.
In the case of `CN(C)c1cc2c(cc1NC(=O)Nc1ccccc1C(F)(F)F)n(C)c(=O)n2C`, the “% Inhibition” value is reported as -4% and the Z score is reported as 0.83.
For `COC(=O)c1cncnc1N(C)C[C@H](C)C(=O)OC`, the “% Inhibition” value was -2% and the Z score was 0.29.
In the case of `OC[C@@]12CCC[C@@H]1CN(c1nccc(C(F)(F)F)n1)C2`, the “% Inhibition” value is reported as -5% and the Z score is reported as 0.82.
`O=C(c1cc(-c2ccccc2F)n[nH]1)N(Cc1ccccn1)Cc1ccco1` was tested, and the “% Inhibition” value was -29% and the Z score was 3.7.
For `CCN(CC)C(=O)[C@@H]1CCCN1C(=O)CCCc1ccccn1`, the “% Inhibition” value was 38% and the Z score was -5.55.
For `N#Cc1csc(CN2CCCC[C@H]2C(=O)N2CCOCC2)c1`, the “% Inhibition” value was -6% and the Z score was 1.04.
`Cc1cc(-c2ccc(C(=O)NCCc3noc(CO)n3)cc2)cc(C)n1` was tested, and the “% Inhibition” value was -4% and the Z score was 0.83.
`Cc1ccc(CNc2ncncc2-c2nc(-c3ccccc3)no2)cc1` was tested, and the “% Inhibition” value was -1% and the Z score was 0.22.
`O=C1N[C@@](c2ccccc2)(C(F)(F)F)C(=O)N1CN(C1CCCC1)C1CC1` was tested, and the “% Inhibition” value was -5% and the Z score was 0.48.
`Cn1ncc2c(N[C@H]3CCc4ccccc43)ncnc21` was tested, and the “% Inhibition” value was -9% and the Z score was 0.75.
In the case of `COc1ccc(-c2csc3ncnc(NCC(=O)N4CCCC4)c23)cc1`, the “% Inhibition” value is reported as 4% and the Z score is reported as -0.67.
For `Cc1sc2ccccc2c1-c1cn(Cc2ccccn2)nn1`, the “% Inhibition” value was -5% and the Z score was 0.56.
`Cn1cnc(O[C@H]2CCCc3ccccc32)cc1=O` was tested, and the “% Inhibition” value was 1% and the Z score was -0.13.
With `CCC1(CC)CN(S(=O)(=O)c2cnc3c(cnn3C)c2)C1` the “% Inhibition” value was -17% and the Z score was 2.63.
For `Cc1nc(CC(=O)NC2Cc3ccccc3C2)cs1`, the “% Inhibition” value was -15% and the Z score was 2.55.
For `C(=C\c1ccccc1)/Cn1cc(-c2nc(-c3cn4ccccc4n3)no2)nn1`, the “% Inhibition” value was -1% and the Z score was 0.1.
In the case of `CN(C)C(=O)c1cnc(N2CC3CC4CC3C2C4O)c(Cl)c1` (centres undefined), the “% Inhibition” value is reported as -8% and the Z score is reported as 1.05.
For `Nc1ccn(Cc2ccccc2)c(=O)n1`, the “% Inhibition” value was 6% and the Z score was -0.93.
In the case of `Cc1nc(N)nc(NCCN2CCC[C@H](CO)C2)c1Cl`, the “% Inhibition” value is reported as -7% and the Z score is reported as 0.87.
In the case of `Cc1cccc(C(=O)N2N=C(c3cccnc3)C[C@]2(O)C(F)(F)F)c1O`, the “% Inhibition” value is reported as -8% and the Z score is reported as 1.
With `CCN1C(=O)Cc2cc(NS(=O)(=O)Cc3ccccc3)ccc21` the “% Inhibition” value was 38% and the Z score was -5.52.
`COC(=O)c1ccccc1Nc1nc(-c2ccccc2)cc(-c2ccccc2)n1` was tested, and the “% Inhibition” value was 1% and the Z score was -0.1.
In the case of `O=C1CCC(c2ccccc2)(c2ccccc2)CN1Cc1ncc[nH]1`, the “% Inhibition” value is reported as 5% and the Z score is reported as -1.09.
In the case of `Cn1nccc1C(=O)Nc1ccc(-c2cc3cc(Cl)ccc3[nH]2)cc1`, the “% Inhibition” value is reported as 9% and the Z score is reported as -1.01.
With `Cc1n[nH]cc1CN(C)S(=O)(=O)c1cn[nH]c1` the “% Inhibition” value was -8% and the Z score was 1.46.
`Cc1nc(N2CCN(C(=O)C3CCCC3)CC2)cc(-n2ccnc2)n1` was tested, and the “% Inhibition” value was -19% and the Z score was 3.34.
In the case of `CC(O)CN(CC(=O)N1CCc2sccc2C1COc1ccccc1)CC1CCCO1` (centres undefined), the “% Inhibition” value is reported as -11% and the Z score is reported as 1.2.
In the case of `CN1CCC(N2CCN(Cc3ccc4cc(O)ccc4c3)CC2)CC1`, the “% Inhibition” value is reported as 90% and the Z score is reported as -8.27.
With `CCc1sc(C(=O)NS(C)(=O)=O)cc1C` the “% Inhibition” value was -4% and the Z score was 0.71.
`CCc1nccc(-c2c(-c3ccccc3)ncn2CCN2CCOCC2)n1` was tested, and the “% Inhibition” value was -6% and the Z score was 0.83.
With `C[C@@H](C(=O)N1CCCC1)S(=O)(=O)c1cccc(Br)c1` the “% Inhibition” value was 3% and the Z score was -0.39.
For `COCCNC(=O)c1csc(CN(CCC(c2ccccc2)c2ccccc2)Cc2ccc(Cl)cc2)n1`, the “% Inhibition” value was 3% and the Z score was -0.43.
For `CCc1nc(C)cc(N2CCC[C@H](N(C)Cc3ccccn3)CC2)n1`, the “% Inhibition” value was -12% and the Z score was 2.
`O=C(NCc1ccc(Cl)cc1)c1csnn1` was tested, and the “% Inhibition” value was -7% and the Z score was 1.17.
In the case of `Cc1cc(C)n(CCNC(=O)c2cnc(-c3ccccc3)nc2)c(=O)n1`, the “% Inhibition” value is reported as -8% and the Z score is reported as 1.39.
`Cc1nnsc1C(=O)NCc1cccnc1-c1ccco1` was tested, and the “% Inhibition” value was -7% and the Z score was 1.4.
With `C[C@H]1Cc2ccccc2N1C(=O)c1ccc(N2CCOCC2)nc1` the “% Inhibition” value was -2% and the Z score was 0.3.
`CCCC1(CO)CCN(C[C@H]2CCCN2CC)CC1` was tested, and the “% Inhibition” value was -10% and the Z score was 1.23.
`C[C@@H]1Oc2ccc(NC(=O)NCc3cnn(C)c3)cc2NC1=O` was tested, and the “% Inhibition” value was -8% and the Z score was 0.69.
For `CN(c1ccccc1NC(=O)c1nccnc1N)C1CCCC1`, the “% Inhibition” value was -2% and the Z score was 0.28.
In the case of `Cc1cccc(-c2noc(N3CCOCC3)c2CN(C(=O)c2cccc(F)c2)C2CC2)c1`, the “% Inhibition” value is reported as 2% and the Z score is reported as -0.26.
In the case of `Cn1c(=O)c2c(O)c(Cc3ccccc3)c(O)nc2n(C)c1=O`, the “% Inhibition” value is reported as 2% and the Z score is reported as -0.33.
`CCc1nccn1[C@H]1CCCN(CCOc2ccccc2OC)C1` was tested, and the “% Inhibition” value was 3% and the Z score was -0.63.
With `CC1(C)CCCC1NC(=O)[C@H]1CCC(=O)N1` (some centres undefined) the “% Inhibition” value was -16% and the Z score was 1.33.
With `COc1cc(-n2cnnn2)ccc1NC(=O)C1CCN(C(C)=O)CC1` the “% Inhibition” value was -11% and the Z score was 2.18.
With `COc1c(C)cc([C@H]2CCc3nc(C(=O)N4CCN(C(c5ccccc5)c5ccccc5)CC4)cn3C2)cc1C` the “% Inhibition” value was -4% and the Z score was 0.38.
In the case of `Cc1noc(C)c1S(=O)(=O)N1CC(=O)N2CCc3ccccc3[C@@H]2C1`, the “% Inhibition” value is reported as 0% and the Z score is reported as -0.05.
For `CCCN1CCN(CC(=O)NCC(C)C)c2cc(F)ccc21`, the “% Inhibition” value was -5% and the Z score was 0.93.
With `COc1ccccc1N1CCN(C(=O)C2CCN(c3cc(-n4ccnc4)ncn3)CC2)CC1` the “% Inhibition” value was -11% and the Z score was 2.12.
With `CCN(Cc1ccco1)C(=O)c1ccc(=O)[nH]n1` the “% Inhibition” value was 6% and the Z score was -1.11.
In the case of `Cc1nnc(CN(C)C[C@H](C)N2CCOCC2)s1`, the “% Inhibition” value is reported as 1% and the Z score is reported as -0.2.
In the case of `COc1cc(C(=O)NC2CC2)ccc1OCc1csc(C)n1`, the “% Inhibition” value is reported as -5% and the Z score is reported as 0.96.
In the case of `CO[C@@H](CNC(=O)c1cn(C)nn1)c1ccco1`, the “% Inhibition” value is reported as 16% and the Z score is reported as -2.05.
With `O=C(C#Cc1ccc2c(c1)OCO2)NC[C@]1(O)CCOC1` the “% Inhibition” value was -7% and the Z score was 0.59.
`Cc1csc(NC(=O)[C@@H]2COCC(=O)N2Cc2ccccc2)n1` was tested, and the “% Inhibition” value was -5% and the Z score was 0.82.
`Cc1cnoc1C(=O)OCc1noc(C(C)(C)C)n1` was tested, and the “% Inhibition” value was -7% and the Z score was 1.1.
For `CC(C)c1ncc(C(=O)NC[C@H]2CN(S(C)(=O)=O)CCO2)cn1`, the “% Inhibition” value was -6% and the Z score was 0.98.
With `Cc1cncc(CNC(=O)N2CCCC3(CCOCC3)C2)c1` the “% Inhibition” value was -3% and the Z score was 0.43.
`COc1ccc([C@@H](NC(=O)c2cnn3ncccc23)C(F)(F)F)cc1F` was tested, and the “% Inhibition” value was -13% and the Z score was 1.88.
With `Cc1cc(C)n(-c2ccnc(N3CCN(C4CCCCC4)CC3)n2)n1` the “% Inhibition” value was -16% and the Z score was 1.73.
For `CC[C@H](C)[C@@H]1NC(=O)N(Cc2ccccc2Cn2cccn2)C1=O`, the “% Inhibition” value was -4% and the Z score was 0.67.
With `CN(C)C1(CN[C@@H](c2ccccc2)c2ccc(F)cn2)CCOCC1` the “% Inhibition” value was -2% and the Z score was 0.29.
`O=C1NCCCCCN(C(=O)NC2CCCCC2)[C@@H]2C[C@@H](C(=O)N3CCc4ccccc4C3)C[C@H]12` was tested, and the “% Inhibition” value was 5% and the Z score was -0.68.
`CS(=O)(=O)c1cccc(C(=O)N2CCC(Oc3nc4c(F)cccc4s3)CC2)c1` was tested, and the “% Inhibition” value was -14% and the Z score was 2.03.
For `CCCc1nn(C)c(CCC)c1C(=O)NCC(C)C`, the “% Inhibition” value was -8% and the Z score was 1.3.
In the case of `Cc1noc(-c2ccc(OC(F)(F)F)cc2)c1C(=O)NCc1cccc(Cl)c1`, the “% Inhibition” value is reported as -6% and the Z score is reported as 0.65.
`Brc1cc(-c2noc([C@H]3CCCO3)n2)c2ncnn2c1` was tested, and the “% Inhibition” value was -9% and the Z score was 1.62.
With `CC(C)c1nc(NC(=O)COC2CCCC2)n(C)n1` the “% Inhibition” value was -5% and the Z score was 0.64.
With `Cc1nc(C2(C)CC2)n(Cc2ccccc2Cl)n1` the “% Inhibition” value was -12% and the Z score was 2.21.
For `CCN(Cc1noc(C2CCC2)n1)Cc1nccn1C`, the “% Inhibition” value was 8% and the Z score was -1.78.
For `O=C(NCc1cccc(C(F)(F)F)c1)c1nc[nH]c1C(=O)NC1CC1`, the “% Inhibition” value was 14% and the Z score was -1.58.
In the case of `Cc1noc(C)c1CN1CC[C@H](NC(=O)c2cc3ccccc3[nH]2)C1`, the “% Inhibition” value is reported as -14% and the Z score is reported as 2.5.
For `Cc1c(CNC(=O)CNC(N)=O)oc2ccccc12`, the “% Inhibition” value was 1% and the Z score was -0.28.
In the case of `CC(C)C[C@H](CCO)CNC(=O)CS(=O)(=O)Cc1ccc(Br)cc1`, the “% Inhibition” value is reported as -1% and the Z score is reported as 0.14.
With `COc1ccccc1[C@H]1C[C@@H](C)CCN1Cc1cnc2cnccn12` the “% Inhibition” value was -6% and the Z score was 0.76.
With `O=C1NCCC[C@@H]1Nc1nccc(C(F)(F)F)n1` the “% Inhibition” value was -2% and the Z score was 0.43.
With `Nc1cc(O)nc(CCNC(=O)c2ccc3nc(-c4ccc(F)cc4)cn3c2)n1` the “% Inhibition” value was -10% and the Z score was 1.19.
In the case of `Cc1nc(-c2cccs2)sc1CNS(=O)(=O)N(C)C`, the “% Inhibition” value is reported as -3% and the Z score is reported as 0.52.
`CC1=Nc2ccccc2C12CCN(C(=O)Nc1cncc(F)c1)CC2` was tested, and the “% Inhibition” value was 11% and the Z score was -1.44.
With `C[C@@H]1NC(=O)N(c2ccccc2NC(=O)CCOc2ccccc2)C1=O` the “% Inhibition” value was 5% and the Z score was -0.67.
In the case of `C=C(C)COc1cccc(C(=O)N2CC[C@H](NC(C)=O)C2)c1`, the “% Inhibition” value is reported as -4% and the Z score is reported as 0.57.
`C[C@@H](CCc1ccc(F)c(F)c1)NC(=O)C(C)(C)O` was tested, and the “% Inhibition” value was 4% and the Z score was -0.49.
In the case of `CC(C)c1nnc(NC(=O)C2Oc3ccccc3C2C)[nH]1` (centres undefined), the “% Inhibition” value is reported as -7% and the Z score is reported as 0.99.
For `COc1cn(CC(=O)NCc2ccc3c(c2)OCO3)c(CN2CCCCC2)cc1=O`, the “% Inhibition” value was -6% and the Z score was 1.05.
`COc1ccc2nc(NC(=O)[C@H]3CCCN(C(=O)C(C)C)C3)sc2c1` was tested, and the “% Inhibition” value was -13% and the Z score was 1.89.
